No constants are given. Whether binding was seen depends on the method and setting. In cells and extracts the contact can be indirect. Some results given as binding are weak or reduced against the parent protein; the word gives no strength. Where a sequence is shown, tags or fusion partners need not be part of it.
Tests used:
[1] = molecular target: T1, FliN-CFP (flagellar motor switch protein FliN) (E. coli) (UniProt P15070); assay: FRET or BRET; acceptor photobleaching FRET between YFP and CFP fusions in living E. coli cells of a ΔcbpAΔdnaJ background (no DnaK co-chaperones)
T1 sequence: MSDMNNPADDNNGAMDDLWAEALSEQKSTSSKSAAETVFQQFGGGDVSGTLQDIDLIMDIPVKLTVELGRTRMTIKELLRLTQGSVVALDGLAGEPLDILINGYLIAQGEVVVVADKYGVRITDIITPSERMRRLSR

The chains behind the UniProt entries cited, without tags or fusion partners. Where a name states a change or a piece, a line headed by the entry shows the natural chain unless it says otherwise.
UniProt P0A6Z3: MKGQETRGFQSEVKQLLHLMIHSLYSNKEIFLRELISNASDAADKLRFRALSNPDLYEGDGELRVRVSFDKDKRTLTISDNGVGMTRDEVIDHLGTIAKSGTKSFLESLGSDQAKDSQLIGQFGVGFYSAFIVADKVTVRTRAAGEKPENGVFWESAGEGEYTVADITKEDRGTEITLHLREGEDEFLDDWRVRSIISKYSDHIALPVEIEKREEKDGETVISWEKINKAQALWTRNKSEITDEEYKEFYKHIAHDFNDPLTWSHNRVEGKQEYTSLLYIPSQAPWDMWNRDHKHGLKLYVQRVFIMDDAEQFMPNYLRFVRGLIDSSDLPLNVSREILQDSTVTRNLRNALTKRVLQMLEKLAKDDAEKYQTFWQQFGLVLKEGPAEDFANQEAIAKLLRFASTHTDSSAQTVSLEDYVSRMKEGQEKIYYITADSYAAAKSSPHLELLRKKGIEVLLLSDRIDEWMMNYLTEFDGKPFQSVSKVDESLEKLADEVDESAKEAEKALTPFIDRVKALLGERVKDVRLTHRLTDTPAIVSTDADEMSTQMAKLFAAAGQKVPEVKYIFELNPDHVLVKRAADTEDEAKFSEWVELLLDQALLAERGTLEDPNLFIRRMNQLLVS

[2] = molecular target: T1, FliN-CFP (flagellar motor switch protein FliN) (E. coli); assay: FRET or BRET; acceptor photobleaching FRET between YFP and CFP fusions in living wild-type E. coli cells over a growth curve (OD600); cells in tethering buffer on an agarose pad
[3] = molecular target: T2, CFP fusion to full-length CheA (E. coli) (UniProt P07363); assay: FRET or BRET; acceptor photobleaching FRET in living E. coli cells; panel of chemoreceptor cluster components against HtpG(E34A) (Table S4); also in ΔflhC strains, which lack endogenous flagellar and chemotaxis proteins
T2 sequence: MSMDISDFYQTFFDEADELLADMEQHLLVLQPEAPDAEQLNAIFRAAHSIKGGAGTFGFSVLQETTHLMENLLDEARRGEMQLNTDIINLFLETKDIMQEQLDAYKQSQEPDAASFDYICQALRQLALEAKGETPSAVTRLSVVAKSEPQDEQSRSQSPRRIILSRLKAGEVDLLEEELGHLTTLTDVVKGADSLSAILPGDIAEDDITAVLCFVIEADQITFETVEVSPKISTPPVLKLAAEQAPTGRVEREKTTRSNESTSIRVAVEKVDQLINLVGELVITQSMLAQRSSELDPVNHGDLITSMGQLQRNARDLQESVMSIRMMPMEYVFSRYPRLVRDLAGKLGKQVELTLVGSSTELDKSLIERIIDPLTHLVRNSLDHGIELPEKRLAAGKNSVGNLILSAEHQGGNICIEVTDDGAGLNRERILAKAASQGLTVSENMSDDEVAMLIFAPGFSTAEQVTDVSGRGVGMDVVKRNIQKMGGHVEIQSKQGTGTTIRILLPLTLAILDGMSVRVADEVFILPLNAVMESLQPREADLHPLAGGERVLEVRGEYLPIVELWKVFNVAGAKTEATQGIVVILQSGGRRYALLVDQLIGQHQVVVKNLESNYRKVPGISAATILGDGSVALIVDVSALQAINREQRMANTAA

[4] = molecular target: T3, CheZ (dimeric phosphatase), fluorescent protein fusion (E. coli) (UniProt P0A9H9); assay: as above
T3 sequence: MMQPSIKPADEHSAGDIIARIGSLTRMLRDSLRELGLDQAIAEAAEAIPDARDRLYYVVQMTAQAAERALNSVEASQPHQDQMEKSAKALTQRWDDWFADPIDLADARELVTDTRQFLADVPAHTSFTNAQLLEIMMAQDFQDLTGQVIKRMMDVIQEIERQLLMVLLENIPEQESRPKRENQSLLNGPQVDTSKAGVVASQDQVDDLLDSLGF

binding [2] | binding [3] | binding [4] | Substance | binding [1]
binds | binds | binds | HtpG(E34A)-YFP (from UniProt P0A6Z3 1-624) | no binding (condition: in a ΔcbpAΔdnaJ background)
binds | – | – | HtpG-YFP (E. coli Hsp90, High-temperature protein G) (from UniProt P0A6Z3 1-624) | no binding (condition: in a ΔcbpAΔdnaJ background)

From publication PMC3708813
